From publication PMC4336329 (PLoS ONE, 2015)
Among all 310,000 compounds or so, about 2,200 (0.71%) showed an effect of 50% or more. The effect is printed as a negative number. The list shows a part of the results.

Biological target: human ether-à-go-go-related gene (hERG) potassium channel (human, UniProt Q12809)
Assay: primary screen, population patch clamp on CHO cells stably expressing hERG

Chain of human ether-à-go-go-related gene (hERG) potassium channel (Q12809 whole entry, looked up): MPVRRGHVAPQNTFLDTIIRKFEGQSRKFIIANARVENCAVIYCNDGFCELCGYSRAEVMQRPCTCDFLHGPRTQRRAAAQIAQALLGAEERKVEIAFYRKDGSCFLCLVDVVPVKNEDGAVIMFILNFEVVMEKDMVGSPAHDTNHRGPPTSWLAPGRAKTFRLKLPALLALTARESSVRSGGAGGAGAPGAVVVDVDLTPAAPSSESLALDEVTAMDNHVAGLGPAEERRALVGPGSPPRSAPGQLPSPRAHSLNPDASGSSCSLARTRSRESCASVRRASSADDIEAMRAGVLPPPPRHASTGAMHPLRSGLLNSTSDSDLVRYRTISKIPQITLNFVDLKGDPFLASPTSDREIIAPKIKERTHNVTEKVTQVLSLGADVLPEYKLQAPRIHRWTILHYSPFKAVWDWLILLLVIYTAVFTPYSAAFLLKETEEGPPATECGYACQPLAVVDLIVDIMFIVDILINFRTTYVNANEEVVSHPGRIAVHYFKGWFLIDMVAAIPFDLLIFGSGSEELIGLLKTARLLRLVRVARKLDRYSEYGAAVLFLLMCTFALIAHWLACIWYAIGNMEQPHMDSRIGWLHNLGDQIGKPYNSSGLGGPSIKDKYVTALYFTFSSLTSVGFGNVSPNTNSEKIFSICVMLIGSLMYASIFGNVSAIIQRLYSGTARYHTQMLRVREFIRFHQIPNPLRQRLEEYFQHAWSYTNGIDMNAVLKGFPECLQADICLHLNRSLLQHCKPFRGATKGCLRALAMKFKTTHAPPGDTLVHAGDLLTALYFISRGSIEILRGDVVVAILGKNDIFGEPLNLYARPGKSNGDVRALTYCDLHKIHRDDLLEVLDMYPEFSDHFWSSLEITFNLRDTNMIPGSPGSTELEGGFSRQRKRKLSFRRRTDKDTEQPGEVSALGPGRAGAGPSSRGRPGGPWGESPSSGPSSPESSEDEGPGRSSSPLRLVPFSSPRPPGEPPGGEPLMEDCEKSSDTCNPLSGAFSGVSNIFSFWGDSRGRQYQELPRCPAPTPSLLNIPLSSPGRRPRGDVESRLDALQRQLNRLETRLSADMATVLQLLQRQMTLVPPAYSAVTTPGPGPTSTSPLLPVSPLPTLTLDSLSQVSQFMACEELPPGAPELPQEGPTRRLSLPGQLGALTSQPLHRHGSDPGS

| Compound | hERG current change (%, negative = inhibition) at 1uM [%] |
| --- | --- |
| CC(OC(=O)/C(C#N)=C/c1ccc(N(C)C)cc1)C(=O)N(C)c1ccccc1 (stereo not shown) | 4.66 |
| O=C(CN(c1ccc(F)cc1)S(=O)(=O)c1ccc2c(c1)OCCO2)NCc1ccncc1 | -10.2 |
| CCOC(=O)CNC(=O)CSc1cc(C)nc2ccc(OC)cc12 | 16.5 |
| O=C(CSCc1ccccc1Cl)Nc1c[nH]c(=O)[nH]c1=O | 13.8 |
| CC(C)=CCCC(C)CN1CCC(n2nccc2NC(=O)c2cccnc2)CC1 (stereo not shown) | -5.79 |
| Cc1nc(C)c(-c2nnc(-c3ccccc3Cl)o2)cc1C(=O)NN | 3.19 |
| CC1CCN(c2ccc(C(=O)NCc3ccco3)cc2[N+](=O)[O-])CC1 | 0.326 |
| CCN(CC)C(=O)c1sc(NC(=O)c2ccoc2C)c(C(=O)OC)c1C | 13.8 |
| CC(Oc1ccc(Cl)cc1)C(=O)OCC(=O)Nc1ncc(Cl)cc1Cl (stereo not shown) | 3.29 |
| COc1ccc(C(=O)NC(C(=O)N2CCc3ccccc32)C(C)C)cc1 (stereo not shown) | 11 |
| Cc1nn(-c2ccccc2)c2sc(C(=O)N(Cc3ccco3)C(C)C(=O)NC(C)(C)C)cc12 (stereo not shown) | 8.78 |
| COc1ccc(C(C(=O)Nc2ccc3c(c2)OCO3)N(C)C(=O)Cc2c[nH]c3ccccc23)cc1 (stereo not shown) | -2.04 |
| C=C1CCC[C@]2(C)C[C@H]3OC(=O)C(CNC(C)CC)[C@H]3CC12 (stereo partly shown) | 8.22 |
| Fc1cccc(CN2CCN(c3ccc(Cl)cc3)CC2)c1 | 16.7 |
| Cc1cc(C)c(C#N)c(SCc2c(F)cccc2[N+](=O)[O-])n1 | 4.42 |
| CCOc1ccc(NC(=O)C(CC)NC(=O)c2ccccc2CO)cc1 (stereo not shown) | 6.33 |
| O=S(=O)(NC1CCCCC1N1CCN(c2cccc(Cl)c2)CC1)c1ccccc1 (stereo not shown) | 9.03 |
| CN(Cc1ccccc1)C(=O)C1CCN(S(C)(=O)=O)CC1 | 11.2 |
| O=C(Nc1ccc([N+](=O)[O-])cc1)Nc1ccc2[nH]c(=O)[nH]c2c1 | 6.63 |
| CC(C)CC(NC(N)=O)C(=O)NCc1ccc(Cl)cc1 (stereo not shown) | 5.25 |
| O=C(CSc1nnc(CNC(=O)c2ccco2)o1)c1ccc(Cl)cc1 | 7.67 |
| COCCNc1nc(SCC(=O)N2CCN(c3ccccc3OC)CC2)nc2ccccc12 | -92.9 |
| Cc1cc(NC(=O)COC(=O)COc2ccc3c4c(c(=O)oc3c2)CCC4)no1 | -3.06 |
| COc1cc(OC)c(C(=O)/C=C/c2ccccc2)c(O)c1O | 11.3 |
| COc1ccc(-n2c(/C=C/c3ccc(O)c(O)c3)nc3ccccc3c2=O)cc1 | 13.2 |
| Cn1c(SCC(=O)NCc2cccs2)nnc1-c1ccc(O)cc1 | 16.9 |
| CCn1c(O)c(/C(C)=N/N2CCCCC2c2cccnc2)c(=O)[nH]c1=S (stereo not shown) | -6.86 |
| O=C(Nc1ccccc1)c1cc(N2CCOCC2)nc2ccccc12 | 8.28 |

| Compound | hERG current change (%, negative = inhibition) at 1uM [%] |
| --- | --- |
| COc1cccc(CNC(=O)c2nnn(CC(=O)Nc3ccc4c(c3)OCO4)c2N)c1 | 9.62 |
| COCCn1c(SCC(=O)OC(C)C)nnc1-c1ccccc1 | -3 |
| Cc1nn(-c2ccccc2)c2nc(-c3cccs3)cc(C(=O)NN)c12 | -0.0302 |
| O=C(COc1cccnc1[N+](=O)[O-])Nc1ccc2c(c1)OCO2 | 8.89 |
| COc1ccccc1-c1cc(C(=O)Nc2cc(C)on2)no1 | 1.49 |
| C[C@@H]1CCC(=O)N(CC[C@H](Oc2ccccc2)c2ccccc2)CC1 | 2.95 |
| COc1ccc(/C=N/Nc2nc(-c3ccc(Cl)cc3)cc(C(F)(F)F)n2)c(OC)c1 | 7.97 |
| COc1ccc(CCNC(=O)C2CCCN(Cc3nc(-c4cccc(Cl)c4)oc3C)C2)cc1OC (stereo not shown) | -76.7 |
| Cc1oc2c(c1C(=O)N1CCC(C)CC1)C(=O)c1ccccc1C2=O | 7.14 |
| O=C(NNC(=O)c1cc(-c2ccccc2)nc2ccccc12)Nc1cccc(Cl)c1 | -0.813 |
| O=C(CNC(=O)c1ccc2c(c1)S(=O)(=O)N=C1CCCCCN12)Nc1ccc(F)c(F)c1 | 2.67 |
| CCOC(=O)c1ccc(N2C(=O)C(CC(N)=O)N(NC(=O)c3cccc(F)c3)C2=S)cc1 (stereo not shown) | 16.5 |
| O=C(N/N=C/c1c(O)n(C2CC2)c(=S)[nH]c1=O)c1ccccc1Cl | 14.3 |
| CC1CCN(C(=O)Cn2c3ccccc3c3nc4n(c(=O)c32)CCS4)CC1 | 13.9 |
| O=C1CN(C(=O)COC(=O)c2ccccc2Br)c2ccccc2N1 | -1.52 |
| CC(C)NC(=O)Cn1cc(C(=O)C2CC2)c2ccccc21 | 16.3 |
| COCCNC(=O)c1onc(CSc2cc(C)cc(C)c2)c1C(=O)O | 8.66 |
| CS(=O)(=O)N1N=C(c2ccco2)CC1c1ccc(Cl)cc1Cl (stereo not shown) | 8.78 |
| Cc1ccc(Oc2ccccc2NC(=O)CSCC(=O)Nc2cc(C)on2)cc1 | 5.44 |
| Cc1nnc(SCC(=O)Nc2cccc([N+](=O)[O-])c2)n1CC1CCCO1 (stereo not shown) | 10.3 |
| CN(CCOCCOc1ccc(Cl)cc1Br)Cc1ccccc1 | 0.853 |
| COc1cccc(-c2cc(C(=O)N3CCc4ccccc4C3)no2)c1 | -7.93 |
| Cc1nc2ccccc2c(=O)n1NC(=O)Cc1ccc(Br)cc1 | 5.31 |
| O=[N+]([O-])c1ccc(-c2ccc(S(=O)(=O)NCCN3CCCC3)cc2)cc1 | -77.3 |
| CN1CCN(CC#CCn2c3ccccc3c3ccccc32)CC1 | -7.02 |
| CCn1ccnc1C(O)c1cccc(OC)c1 (stereo not shown) | 8.76 |
| COc1ccc(C(=O)OCCN2CCN(C3=NS(=O)(=O)c4ccccc43)CC2)cc1OC | -1.52 |
